Article PMC4336329 (PLoS ONE, 2015)
The whole screen tested about 310,000 compounds, of which about 2,200 (0.71%) showed an effect of 50% or more. Effects have a minus sign here. Some of the results follow.

What follows are compounds tested against human ether-à-go-go-related gene (hERG) potassium channel (human, UniProt Q12809) (assay: primary screen, population patch clamp on CHO cells stably expressing hERG).
Chain of human ether-à-go-go-related gene (hERG) potassium channel (Q12809 whole entry, looked up): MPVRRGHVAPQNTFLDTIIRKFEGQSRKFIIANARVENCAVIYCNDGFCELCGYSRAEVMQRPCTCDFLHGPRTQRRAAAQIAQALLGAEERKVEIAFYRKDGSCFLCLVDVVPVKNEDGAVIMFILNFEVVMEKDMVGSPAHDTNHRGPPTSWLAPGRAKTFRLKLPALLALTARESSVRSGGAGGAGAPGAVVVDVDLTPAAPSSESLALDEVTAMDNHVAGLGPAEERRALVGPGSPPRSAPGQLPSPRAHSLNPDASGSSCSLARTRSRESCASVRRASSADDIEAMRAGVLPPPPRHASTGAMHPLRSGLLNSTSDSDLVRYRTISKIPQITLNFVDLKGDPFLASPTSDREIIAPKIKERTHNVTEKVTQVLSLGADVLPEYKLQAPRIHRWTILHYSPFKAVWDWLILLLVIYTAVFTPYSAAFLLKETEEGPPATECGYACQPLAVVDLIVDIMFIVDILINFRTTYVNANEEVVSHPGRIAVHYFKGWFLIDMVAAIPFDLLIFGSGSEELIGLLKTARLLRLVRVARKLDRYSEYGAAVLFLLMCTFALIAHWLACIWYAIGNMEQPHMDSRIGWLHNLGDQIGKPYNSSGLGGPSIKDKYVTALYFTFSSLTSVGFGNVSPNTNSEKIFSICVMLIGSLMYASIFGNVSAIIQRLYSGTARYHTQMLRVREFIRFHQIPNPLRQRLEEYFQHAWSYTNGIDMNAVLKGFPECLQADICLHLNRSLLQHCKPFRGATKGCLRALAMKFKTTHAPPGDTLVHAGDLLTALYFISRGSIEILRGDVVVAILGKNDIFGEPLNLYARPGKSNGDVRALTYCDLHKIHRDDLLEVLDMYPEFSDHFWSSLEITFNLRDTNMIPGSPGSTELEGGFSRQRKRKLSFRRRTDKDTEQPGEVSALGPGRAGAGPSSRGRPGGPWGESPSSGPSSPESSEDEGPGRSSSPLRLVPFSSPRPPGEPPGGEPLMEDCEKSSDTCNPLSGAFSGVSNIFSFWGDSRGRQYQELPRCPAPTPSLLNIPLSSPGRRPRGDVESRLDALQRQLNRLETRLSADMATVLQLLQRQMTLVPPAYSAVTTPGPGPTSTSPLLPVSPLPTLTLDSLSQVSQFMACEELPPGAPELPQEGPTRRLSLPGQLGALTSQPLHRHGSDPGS

| SMILES | hERG current change (%, negative = inhibition) at 1uM |
| --- | --- |
| CCC(C)(C)C(=O)Nc1ccc(C(N)=O)cc1 | 3.68% |
| CC(C)c1cc(C(=O)N/N=C/C(Br)=C/c2ccccc2)n[nH]1 | 8.64% |
| CCOC(=O)C1=C(C)NC(=S)NC1c1ccc(OC(=O)c2ccco2)cc1 (stereo not drawn) | 10.4% |
| C#CCOCCOCCOCCNc1nc(N2CCN(C(=O)[C@H]([C@@H](C)CC)n3cc([C@@H](N)CO)nn3)CC2)nc(N2CCN(C(=O)[C@H](Cc3cc4ccccc4[nH]3)n3cc([C@@H](N)Cc4ccc(O)cc4)nn3)CC2)n1.Cl | 5.83% |
| CCc1ccc(NC(=O)C2CCCN(S(=O)(=O)c3cccs3)C2)cc1 (stereo not drawn) | 9.22% |
| COc1cc(CC2C(=O)Nc3ccccc32)cc(C)c1O (stereo not drawn) | 10.3% |
| COc1cc(NC(=S)N2CCN(C(=O)C3CCCO3)CC2)c(OC)cc1Cl (stereo not drawn) | -4.08% |
| COc1ccc(N2CCN(C(=O)c3ccc(CS(=O)Cc4ccc(C)cc4)o3)CC2)cc1 (stereo not drawn) | 9.46% |
| Cc1ccc(OCC(=O)NCCNC(=O)c2cnccn2)cc1 | 13.2% |
| COCc1cc(CN2CCN(C)CC2)c(O)c2ncccc12 | 11.3% |
| COc1cccc(C(=O)Nc2nnc(-c3ccccc3)s2)c1 | 13.7% |
| COc1cccc(NC(=O)CSc2nnc(-c3cc(C)[nH]n3)n2N)c1 | 14.4% |
| COc1ccccc1CNC(=O)C1CCCN(S(=O)(=O)c2cccc3nsnc23)C1 (stereo not drawn) | 6.86% |
| O=C(CSc1nnc2ccccn12)NCCN1C(=O)CSC1=O | 15.6% |
| O=C1/C(=C/c2cccnc2)SC(=S)N1c1ccc(F)cc1 | 32.6% |
| O=C1CCC(=O)N1CC(O)COc1ccccc1 (stereo not drawn) | 9.28% |
| O=C(CCNC(=O)c1ccccc1)Nc1ccc(F)c(Cl)c1 | 8.53% |
| COc1ccc(-c2cc(C(=O)NNC(=S)NC(=O)c3c(-c4ccccc4)noc3C)[nH]n2)cc1 | 11.9% |
| Cc1ccc(NC(=O)N2CCCC2C(=O)NCc2ccc(Cl)cc2)cc1 (stereo not drawn) | 5.86% |
| CC(Oc1ccccc1F)C(=O)NN (stereo not drawn) | 5.81% |
| Cc1cc(NC(=O)COC(=O)CCNS(=O)(=O)c2cccc(C(F)(F)F)c2)no1 | 14.2% |
| O=C(NC(=S)Nc1cccc2ncccc12)c1ccccc1 | -0.467% |
| CC1CC(C)(C)CC2(C1)NC(=O)N(CC(=O)NCC(c1ccco1)N1CCCCC1)C2=O (stereo not drawn) | -15.8% |
| COC(=O)c1ccc(Nc2c([N+](=O)[O-])ccc3nonc23)cc1 | 13% |
